From the antibiotic and cytotoxicity screens of Wong et al. (2023)
Some of the results follow.

How the values were obtained:
[1] = test system: HSkMC (human skeletal muscle cells); experiment: cytotoxicity call (relative viability < 0.9); conditions: 10 µM
[2] = test system: HepG2; experiment: cytotoxicity call (relative viability < 0.9); conditions: 10 µM
[3] = test system: S. aureus RN4220; experiment: growth inhibition call (relative growth <= 0.2); conditions: 50 µM

| Compound | cytotoxicity call [1] | cytotoxicity call [2] | growth inhibition call [3] |
| --- | --- | --- | --- |
| C[C@H](CO)N1C[C@H](C)[C@H](CN(C)CC2CC2)Oc2ccc(NS(=O)(=O)c3ccccc3)cc2C1=O | inactive | inactive | inactive |
| C[C@H]1CN([C@@H](C)CO)C(=O)c2cccc(NC(=O)c3ccc(-c4nccs4)cc3)c2O[C@H]1CN(C)Cc1ccc2c(c1)OCO2 | inactive | inactive | inactive |
| CC(=O)OC1CC2C(C)(C)C(=O)C3OC3C2(C)C2CCC3(C)C(c4ccoc4)OC(=O)C4OC43C12C (configuration not stated) | inactive | inactive | inactive |
| COCC(=O)Nc1ccc2c(c1)C(=O)N(C)C[C@@H](OC)[C@H](C)CN(Cc1ccccc1F)[C@@H](C)CO2 | inactive | inactive | inactive |
| C[C@@H]1CN([C@H](C)CO)C(=O)c2cccc(NC(=O)Nc3cccc4ccccc34)c2O[C@H]1CN(C)C(=O)Nc1cccc2ccccc12 | active | inactive | inactive |
| COCC(=O)Nc1ccc2c(c1)C(=O)N(C)C[C@H](OC)[C@@H](C)CN(C(=O)c1ccccc1F)[C@H](C)CO2 | inactive | inactive | inactive |
| COc1ccc(NC(=O)N(C)C[C@@H]2Oc3ccc(NC(=O)Nc4ccc(C(F)(F)F)cc4)cc3CC(=O)N([C@@H](C)CO)C[C@H]2C)cc1 | inactive | inactive | inactive |
| O=C1CN(S(=O)(=O)Cc2ccccc2)C[C@@H]2[C@H](c3ccc(C#Cc4ccc(F)cc4)cc3)[C@H](CO)N12 | active | inactive | inactive |
| CNC[C@H]1OCCCC[C@@H](C)Oc2ccc(NS(=O)(=O)c3c(C)noc3C)cc2C(=O)N([C@@H](C)CO)C[C@H]1C | inactive | inactive | inactive |
